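Each compound was tested at five concentrations against cells in 96-well plates for 48 hours. GI50 marks 50% less growth. TGI is the concentration that stops growth completely.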
System: NCI-H322M lung
Experiment: growth of human tumour cells (NCI), 48 h

Structure (SMILES)	GI50 [µM]	TGI [µM]
CN(/N=N/c1nc(OCc2ccccc2)c2[nH]cnc2n1)C(=O)N(C)/N=N/c1nc(OCc2ccccc2)c2[nH]cnc2n1	41.3	> 100
COc1ccc(C2c3cc4c(cc3OC(N3CCOCC3)C2C)OCO4)c(OC)c1 (configuration not stated)		58.8
CC(=O)Oc1cccc2c1C(=O)C(Br)(Br)CCC2		31.4
C=CCC1(O)c2cccc(O)c2C(=O)c2cccc(O)c21 (configuration not stated)		96.7
Cl.Fc1c[c-]c(-c2ccccn2)c(F)c1.[Pt].c1ccc([PH+](CC[PH+](c2ccccc2)c2ccccc2)c2ccccc2)cc1	0.0744	1.06
